Experimental data as given in the GPR68 mutational scans of Howard et al. (2025).
Scores whose standard error is large were omitted. The source holds two more conditions with little spread; they are left out. Names with del lack the residues named; names with ins carry added residues between the positions named. For some assays here: The concentration of ogerin is not given here.

B1: GPR68, Q15743 (parent)
chain: MGNITADNSSMSCTIDHTIHQTLAPVVYVTVLVVGFPANCLSLYFGYLQIKARNELGVYLCNLTVADLFYICSLPFWLQYVLQHDNWSHGDLSCQVCGILLYENIYISVGFLCCISVDRYLAVAHPFRFHQFRTLKAAVGVSVVIWAKELLTSIYFLMHEEVIEDENQHRVCFEHYPIQAWQRAINYYRFLVGFLFPICLLLASYQGILRAVRRSHGTQKSRKDQIQRLVLSTVVIFLACFLPYHVLLLVRSVWEASCDFAKGVFNAYHFSLLLTSFNCVADPVLYCFVSETTHRDLARLRGACLAFLTCSRTGRAREAYPLGAPEASGKSGAQGEEPELLTKLHPAFQTPNSPGSGGFPTGRLA

Tests used:
[1] = variants of: B1; assay: cAMP reporter score (Enrich2 score, wild type = 0); higher = more signal; HEK293T, FACS bins
[2] = variants of: B1; assay: surface expression score (Enrich2 score, wild type = 0); higher = more signal; HEK293T, FACS bins

| Variant | cAMP reporter score ([1]; pH 5.5) | cAMP reporter score ([1]; pH 6, modulator: ogerin) | surface expression score [2] | cAMP reporter score ([1]; pH 6) | cAMP reporter score ([1]; pH 6.5, modulator: ogerin) |
| --- | --- | --- | --- | --- | --- |
| MGNITADNSSMSCTIDHTIHQTLAPVVYVTVLVVGFPANCLSLYFGYLQIKARNELGVYLCNLTVADLFYICSLPFWLQYVLQHDNWSHGDLSCQVCGILLYENIYISVGFLCCISVDRYLAVAHPFRFHQFRTLKAAVGVSVVIWAKELLTSIYFLMHEEVIEDENQHRVCFEHYPIQAWQRAINYYRFLVGFLFPICLLLASYQGILRAVRRSFGTQKSRKDQIQRLVLSTVVIFLACFLPYHVLLLVRSVWEASCDFAKGVFNAYHFSLLLTSFNCVADPVLYCFVSETTHRDLARLRGACLAFLTCSRTGRAREAYPLGAPEASGKSGAQGEEPELLTKLHPAFQTPNSPGSGGFPTGRLA [H216F] | -0.3 | 0.214 | 0.304 | – | – |
| MGNITADNSSMSCTIDHTIHQTLAPVVYVTVLVVGFPANCLSLYFGYLQIKARNELGVYLCNLTVADLFYICSLPFWLQYVLQHDNWSHGDLSCQVCGILLYENIYISVGFLCCISVDRYLAVAHPFRFHQFRTLKAAVGVSVVIWAKELLTSIYFLMHEEVIEDENQHRVCFEHYPIQAWQRAINYYRFLVGFLFPICLLLASYQGILRAVRRSGGTQKSRKDQIQRLVLSTVVIFLACFLPYHVLLLVRSVWEASCDFAKGVFNAYHFSLLLTSFNCVADPVLYCFVSETTHRDLARLRGACLAFLTCSRTGRAREAYPLGAPEASGKSGAQGEEPELLTKLHPAFQTPNSPGSGGFPTGRLA [H216G] | 0.066 | -1.01 | 0.932 | -0.708 | -0.842 |
| MGNITADNSSMSCTIDHTIHQTLAPVVYVTVLVVGFPANCLSLYFGYLQIKARNELGVYLCNLTVADLFYICSLPFWLQYVLQHDNWSHGDLSCQVCGILLYENIYISVGFLCCISVDRYLAVAHPFRFHQFRTLKAAVGVSVVIWAKELLTSIYFLMHEEVIEDENQHRVCFEHYPIQAWQRAINYYRFLVGFLFPICLLLASYQGILRAVRRSIGTQKSRKDQIQRLVLSTVVIFLACFLPYHVLLLVRSVWEASCDFAKGVFNAYHFSLLLTSFNCVADPVLYCFVSETTHRDLARLRGACLAFLTCSRTGRAREAYPLGAPEASGKSGAQGEEPELLTKLHPAFQTPNSPGSGGFPTGRLA [H216I] | 0.931 | 0.653 | -0.713 | 1.52 | 0.313 |
| MGNITADNSSMSCTIDHTIHQTLAPVVYVTVLVVGFPANCLSLYFGYLQIKARNELGVYLCNLTVADLFYICSLPFWLQYVLQHDNWSHGDLSCQVCGILLYENIYISVGFLCCISVDRYLAVAHPFRFHQFRTLKAAVGVSVVIWAKELLTSIYFLMHEEVIEDENQHRVCFEHYPIQAWQRAINYYRFLVGFLFPICLLLASYQGILRAVRRSKGTQKSRKDQIQRLVLSTVVIFLACFLPYHVLLLVRSVWEASCDFAKGVFNAYHFSLLLTSFNCVADPVLYCFVSETTHRDLARLRGACLAFLTCSRTGRAREAYPLGAPEASGKSGAQGEEPELLTKLHPAFQTPNSPGSGGFPTGRLA [H216K] | 0.263 | 0.587 | 1.9 | – | 0.104 |
